Test results published in patent US20230130103A1, “TARGETED PHARMACOLOGICAL THERAPEUTICS IN UVEAL MELANOMA” (Washington University, priority 2017, published 2023).
pEC50: −log10 of the molar value. Starred links: 1 amine or outer side, 2 acyl side, 3 side chain; linkers in the order of their positions; H or OH if unused. Positions of bridges follow the written chain, without caps; N, C: chain ends. Non-standard residues stand in square brackets, D forms with d. Residues, ends and D or L forms follow the SMILES beside them. *: point of attachment. Leu(3R-OH,Nα-propionyl) = CCC(=O)N[C@H](C(=O)*)[C@H](O)C(C)C; X1 = CC(C)[C@@H](O[*:3])[C@H](N[*:1])C(=O)[*:2]; X2 = CC(C)[C@H](O[*:3])[C@@H](N[*:1])C(=O)[*:2]; NMeaThr = CN[C@H](C(=O)O)[C@H](C)O; dPhLac = O=C(O)[C@H](O)Cc1ccccc1; NMeA = CN[C@@H](C)C(=O)O; NMeDha = C=C(NC)C(=O)O

What was measured:
[1] = tested on: Gαq(Q209L)-driven 92.1 cells; assay: IP1 accumulation in UM cells (IP-One kit); type: cell-based, Human; details: FIG. 3B
Excerpt: (§1) Inhibition of signaling by constitutively active Gαq in UM cultured cell lines was quantified by measuring intracellular inositol 1-phosphate (IP1), a metabolically stable product of inositol 1,4,5-trisphosphate produced by Gαq-stimulated phospholipase Cβ. FIG. 3A Basal IP1 levels in UM cell lines driven by constitutively active Gαq (92.1 and Mel202) and BRAF (OCM-1A). FIG. 3B Effects of FR on IP1 levels in 92.1, Mel202 and OCM-1A cells. *p<0.01.
(§2) A third UM cell line (OCM-1A) driven by constitutively active BRAF(V600E) served as a negative control. Signaling by Gαq-stimulated phospholipase Cβ was quantified based on levels of inositol monophosphate (IP1), a metabolically stable product of inositol 1,4,5-trisphosphate (IP3) produced by cleavage of phosphatidylinositol 4,5-bisphosphate (PIP2). […] FR reduced IP1 levels in Mel202 and 92.1 cells >50-fold (FIG. 3B), but had only modest effect (˜2-fold) on OCM-1A cells (FIG. 3B).
(§3) Accumulation of IP1 in UM cells was measured using the IP-One kit (CiSbio, Inc; catalog number 62IPAPEB) according to the supplier's instructions. 10,000 Mel 202 cells, 20,000 92.1 cells and 20,000 OCM 1A cells were seeded into white-bottom tissue culture grade 384-well plates. Following an overnight incubation, cells were treated with FR or DMSO and returned to the incubator. […] Plates were read in a Synergy H4 Hybred Reader (BioTek, Winooski, Vt., USA). […]

[2] = tested on: Gαq(Q209L)-driven Mel202 cells; assay: IP1 accumulation in UM cells (IP-One kit); type: cell-based, Human; details: FIG. 3B
Excerpt: as §1, §2, §3

[3] = molecular target: T1, constitutively active Gαq and RGS2 (Homo sapiens, UniProt P50148, Q209L); assay: Split luciferase complementation, Gα interaction with RGS2; type: cell-based; details: HEK-293 cells, FIG. 1C
T1 construct: expressed in transfected cells; host or cells: HEK-293
Excerpt: (§4) (FIG. 1A-1C) depicts the effect of FR on the activity state of Gα subunits as determined by interaction with Gβγ or RGS domains in split luciferase complementation assays. FIG. 1A Effect of FR on interaction of Gβγ2 with the indicated wild type (WT) or mutant constitutively active (Q/L) forms of Gα (q) or Gα13 (13). * p<0.01; ** p<0.05. FIG. 1B Potency of FR as a driver of interaction of Gβγ2 with wild type or mutant constitutively active Gαq. FIG. 1C Potency of FR as inhibitor of interaction of RGS2 with mutant constitutively active (Q/L) Gαq, or interaction of the RGS domain of LARG (LARG-RGS) with mutant constitutively active Gα13. FIG. 1D Potency of FR as inhibitor of signal transduction by constitutively active Gαq or Gα13 detected with an SRE(L) promoter-driven transcriptional reporter. Constitutively active Gαq (Q/L), constitutively active Gαq bearing the indicated FR binding site mutations, and constitutively Gα13 (Q/L) were studied.
(§5) To detect protein-protein interactions, a split luciferase complementation assays was used (23), as employed to study activation state-dependent interaction between Gα subunits and cognate binding partners (24).
(§6) Split luciferase assays were performed as described (24). […]

[4] = molecular target: T2, constitutively active Gαq(Q209L) interacting with Gβγ2 (Homo sapiens, UniProt P50148, Q209L); assay: Split luciferase complementation, Gα interaction with Gβγ2; type: cell-based; details: HEK-293 cells, 18 h, FIG. 1B, read-out: EC50, increase of split luciferase complementation
T2 construct: expressed in transfected cells; host or cells: HEK-293
Excerpt: as §4, §5, §6

[5] = tested on: transgenic UM tumors driven by Gαq(Q209L); assay: Transgenic mouse model of UM, intravitreal injection, RNA-Seq of tumors; type: in vivo; details: intravitreal FR, expected result of planned experiment
Excerpt: Next we will determine whether FR targets primary ocular tumors in a transgenic mouse model of UM. […] This model has key advantages over transplant models. First, it is highly penetrant and reproducible. Occular tumors occur in 100% of mice within 4 weeks of age. Second, hematogenous dissemination of tumor cells to the lung occurs in >90% of mice by 3 months of age, making this transgenic model well suited for determining whether FR inhibits metastatic dissemination or growth. […] In contrast, tumor xenografts develop intravitreally are inappropriate for indicating how tumors arising within the uveal tract might respond to FR.
Transgenic uveal melanoma tumors will be imaged non-invasively, by spectral-domain optical coherence tomography (SD-OCT) and angiography. These techniques enable ocular tumor volume and blood supply recruitment to be followed over time. Baseline images will be acquired in 4-week old mice when tumors are small but evident. […] Inhibition of tumor growth as a function of FR concentration will be determined. Tumors will be harvested and analyzed by immunoblotting or immunohistochemistry for the activity state of signaling pathways downstream of constitutively active Gαq/11 in UM (YAP; MEK), to determine dose of FR is sufficient to inhibit constitutively active Gαq signaling in tumors. […]

T2 sequence (P62873 whole entry): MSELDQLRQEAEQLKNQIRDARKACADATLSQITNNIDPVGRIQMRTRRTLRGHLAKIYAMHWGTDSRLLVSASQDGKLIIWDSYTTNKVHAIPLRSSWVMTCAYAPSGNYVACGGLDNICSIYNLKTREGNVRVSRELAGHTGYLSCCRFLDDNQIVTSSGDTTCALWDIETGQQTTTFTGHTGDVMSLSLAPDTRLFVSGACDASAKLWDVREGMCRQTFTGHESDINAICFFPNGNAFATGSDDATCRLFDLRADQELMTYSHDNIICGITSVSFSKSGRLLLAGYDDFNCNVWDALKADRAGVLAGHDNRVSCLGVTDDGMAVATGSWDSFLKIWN
T2 sequence (P50148 whole entry Q209L): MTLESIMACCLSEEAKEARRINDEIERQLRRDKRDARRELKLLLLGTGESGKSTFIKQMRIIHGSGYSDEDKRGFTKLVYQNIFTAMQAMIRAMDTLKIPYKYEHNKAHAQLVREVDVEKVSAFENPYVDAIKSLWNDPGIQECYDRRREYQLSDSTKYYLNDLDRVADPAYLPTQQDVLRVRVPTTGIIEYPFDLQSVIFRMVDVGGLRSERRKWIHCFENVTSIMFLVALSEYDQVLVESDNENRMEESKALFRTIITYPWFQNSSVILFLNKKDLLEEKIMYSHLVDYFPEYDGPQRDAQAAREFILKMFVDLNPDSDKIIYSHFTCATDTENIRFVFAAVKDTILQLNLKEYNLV
T2 sequence (P59768 2-68, further chain): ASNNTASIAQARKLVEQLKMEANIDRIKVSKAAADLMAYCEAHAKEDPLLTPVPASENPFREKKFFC
T1 sequence (P50148 whole entry Q209L): as the sequence (P50148 whole entry Q209L) above

With `C=C1C(=O)N[C@@H](C)C(=O)N(C)[C@@H](C)C(=O)N[C@H]([C@@H](OC(=O)[C@@H](NC(=O)CC)[C@H](O)C(C)C)C(C)C)C(=O)N(C)[C@@H]([C@H](C)OC)C(=O)O[C@H](C(C)C)[C@H](NC(C)=O)C(=O)O[C@H](Cc2ccccc2)C(=O)N1C` [FR, [(1S)-1-[(3S,6R,9S,12S,18R,21S,22R)-21-acetamido-18-benzyl-3-[(1S)-1-methoxyethyl]-4,9,10,12,16-pentamethyl-15-methylidene-2,5,8,11,14,17,20-heptaoxo-22-propan-2-yl-1,19-dioxa-4,7,10,13,16-pentazacyclodocos-6-yl]-2-methylpropyl] (2S,3R)-3-hydroxy-4-methyl-2-(propanoylamino)pentanoate] (Ac-[X1][dPhLac][NMeDha]A[NMeA][X2](Leu(3R-OH,Nα-propionyl))[NMeaThr](Me); ester 1-C) the “reduction of IP1 levels” value [1] was > 50 fold, the “reduction of IP1 levels” value [2] was > 50 fold and the “IC50, inhibition of interaction with RGS2” value [3] was 0.4 nM. The pEC50 [4] was 8.05 and the “silencing of PRC2-regulated genes in transgenic UM tumors” value [5] was “will reinstate silencing of PRC2-regulated genes”.
